Measurements: article PMC9911399, “Two distinct binding modes provide the RNA-binding protein RbFox with extraordinary sequence specificity”
Where a chain is given by its changes, count along the chain named. Some of the results follow.

B1: UGCGGGG (DNA:RNA)
RNA: GGGAGACCGGAAUUCAGAUUGUCCUGCGGGGUUAAAUCCCGUCGUAGCCACCA
DNA 1: CAATCTGAATTCCGGTCTCCC
DNA 2: TGGTGGCTACGACGGGATT
B2: UCCUUAC (DNA:RNA)
RNA: B1 RNA with G26C, G28U, G29U, G30A, G31C
DNA 1: CAATCTGAATTCCGGTCTCCC
DNA 2: TGGTGGCTACGACGGGATT
B3: UUUCGGA (DNA:RNA)
RNA: B1 RNA with G26U, C27U, G28C, G31A
DNA 1: CAATCTGAATTCCGGTCTCCC
DNA 2: TGGTGGCTACGACGGGATT
B4: GUCAACU (DNA:RNA)
RNA: B1 RNA with U25G, G26U, G28A, G29A, G30C, G31U
DNA 1: CAATCTGAATTCCGGTCTCCC
DNA 2: TGGTGGCTACGACGGGATT
B5: GGUUAAU (DNA:RNA)
RNA: B1 RNA with U25G, C27U, G28U, G29A, G30A, G31U
DNA 1: CAATCTGAATTCCGGTCTCCC
DNA 2: TGGTGGCTACGACGGGATT
B6: GGGAACA (DNA:RNA)
RNA: B1 RNA with U25G, C27G, G28A, G29A, G30C, G31A
DNA 1: CAATCTGAATTCCGGTCTCCC
DNA 2: TGGTGGCTACGACGGGATT
B7: CGGUCAG (DNA:RNA)
RNA: B1 RNA with U25C, C27G, G28U, G29C, G30A
DNA 1: CAATCTGAATTCCGGTCTCCC
DNA 2: TGGTGGCTACGACGGGATT
B8: CUCACAG (DNA:RNA)
RNA: B1 RNA with U25C, G26U, G28A, G29C, G30A
DNA 1: CAATCTGAATTCCGGTCTCCC
DNA 2: TGGTGGCTACGACGGGATT
B9: GCUAAAC (DNA:RNA)
RNA: GGGAGACCGGAAUUCAGAUUGUCCGCUAAACUUAAAUCCCGUCGUAGCCACCA
DNA 1: CAATCTGAATTCCGGTCTCCC
DNA 2: TGGTGGCTACGACGGGATT
B10: CAUGUAA (DNA:RNA)
RNA: B9 RNA with G25C, C26A, A28G, A29U, C31A
DNA 1: CAATCTGAATTCCGGTCTCCC
DNA 2: TGGTGGCTACGACGGGATT
B11: ACAAACA (DNA:RNA)
RNA: B9 RNA with G25A, U27A, A30C, C31A
DNA 1: CAATCTGAATTCCGGTCTCCC
DNA 2: TGGTGGCTACGACGGGATT
B12: CUGACCU (DNA:RNA)
RNA: B9 RNA with G25C, C26U, U27G, A29C, A30C, C31U
DNA 1: CAATCTGAATTCCGGTCTCCC
DNA 2: TGGTGGCTACGACGGGATT
B13: CCCUUAU (DNA:RNA)
RNA: B9 RNA with G25C, U27C, A28U, A29U, C31U
DNA 1: CAATCTGAATTCCGGTCTCCC
DNA 2: TGGTGGCTACGACGGGATT
B14: UACGGAA (DNA:RNA)
RNA: B1 RNA with G26A, G30A, G31A
DNA 1: CAATCTGAATTCCGGTCTCCC
DNA 2: TGGTGGCTACGACGGGATT
B15: AGGAGUC (DNA:RNA)
RNA: B9 RNA with G25A, C26G, U27G, A29G, A30U
DNA 1: CAATCTGAATTCCGGTCTCCC
DNA 2: TGGTGGCTACGACGGGATT
B16: GAUCCCU (DNA:RNA)
RNA: B9 RNA with C26A, A28C, A29C, A30C, C31U
DNA 1: CAATCTGAATTCCGGTCTCCC
DNA 2: TGGTGGCTACGACGGGATT
B17: AACACGA (DNA:RNA)
RNA: B1 RNA with U25A, G26A, G28A, G29C, G31A
DNA 1: CAATCTGAATTCCGGTCTCCC
DNA 2: TGGTGGCTACGACGGGATT
B18: GAUUCCU (DNA:RNA)
RNA: B9 RNA with C26A, A28U, A29C, A30C, C31U
DNA 1: CAATCTGAATTCCGGTCTCCC
DNA 2: TGGTGGCTACGACGGGATT
B19: GACUGCG (DNA:RNA)
RNA: B1 RNA with U25G, G26A, G28U, G30C
DNA 1: CAATCTGAATTCCGGTCTCCC
DNA 2: TGGTGGCTACGACGGGATT
B20: UAUGACC (DNA:RNA)
RNA: B9 RNA with G25U, C26A, A28G, A30C
DNA 1: CAATCTGAATTCCGGTCTCCC
DNA 2: TGGTGGCTACGACGGGATT
B21: UUUGGGA (DNA:RNA)
RNA: B1 RNA with G26U, C27U, G31A
DNA 1: CAATCTGAATTCCGGTCTCCC
DNA 2: TGGTGGCTACGACGGGATT
B22: GCCAGUG (DNA:RNA)
RNA: B9 RNA with U27C, A29G, A30U, C31G
DNA 1: CAATCTGAATTCCGGTCTCCC
DNA 2: TGGTGGCTACGACGGGATT
B23: CCAGUUA (DNA:RNA)
RNA: B9 RNA with G25C, U27A, A28G, A29U, A30U, C31A
DNA 1: CAATCTGAATTCCGGTCTCCC
DNA 2: TGGTGGCTACGACGGGATT
B24: UUGGGAU (DNA:RNA)
RNA: B1 RNA with G26U, C27G, G30A, G31U
DNA 1: CAATCTGAATTCCGGTCTCCC
DNA 2: TGGTGGCTACGACGGGATT
B25: CGGGACG (DNA:RNA)
RNA: B1 RNA with U25C, C27G, G29A, G30C
DNA 1: CAATCTGAATTCCGGTCTCCC
DNA 2: TGGTGGCTACGACGGGATT
B26: GACCUGU (DNA:RNA)
RNA: B1 RNA with U25G, G26A, G28C, G29U, G31U
DNA 1: CAATCTGAATTCCGGTCTCCC
DNA 2: TGGTGGCTACGACGGGATT
B27: CGGUGCC (DNA:RNA)
RNA: B1 RNA with U25C, C27G, G28U, G30C, G31C
DNA 1: CAATCTGAATTCCGGTCTCCC
DNA 2: TGGTGGCTACGACGGGATT
B28: UCAGGCC (DNA:RNA)
RNA: B1 RNA with G26C, C27A, G30C, G31C
DNA 1: CAATCTGAATTCCGGTCTCCC
DNA 2: TGGTGGCTACGACGGGATT
B29: UGUUCUA (DNA:RNA)
RNA: B1 RNA with C27U, G28U, G29C, G30U, G31A
DNA 1: CAATCTGAATTCCGGTCTCCC
DNA 2: TGGTGGCTACGACGGGATT
B30: UCGGCCG (DNA:RNA)
RNA: B1 RNA with G26C, C27G, G29C, G30C
DNA 1: CAATCTGAATTCCGGTCTCCC
DNA 2: TGGTGGCTACGACGGGATT
B31: GGCUGAG (DNA:RNA)
RNA: B1 RNA with U25G, G28U, G30A
DNA 1: CAATCTGAATTCCGGTCTCCC
DNA 2: TGGTGGCTACGACGGGATT

The binders below were run against T1, RBFOX1 RRM (Homo sapiens, UniProt Q9NWB1 109-208) (assay: EMSA; HiTS-Eq, 1 nM pool, 10 min; buffer printed only for the single-RNA assays: 10 mM Tris pH 7.5, 150 mM NaCl, 3.4 mM EDTA, 0.001% NP-40, 30 C). Details: tags: His6 N-terminal (pET28a); label: 5' 32P.
T1 sequence: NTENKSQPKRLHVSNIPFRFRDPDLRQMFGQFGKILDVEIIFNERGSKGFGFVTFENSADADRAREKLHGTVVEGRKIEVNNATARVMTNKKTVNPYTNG
In short: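 Purified RbFox RRM, wild type or mutant, was incubated for 10 min in 50 µL with 1 nM of a 5′-radiolabelled RNA pool carrying 7 randomized nucleotides, whose flanks were annealed to DNA oligonucleotides, over a series of increasing protein concentrations. Unbound RNA was resolved on 8% native PAGE, cut out, reverse-transcribed, barcoded by PCR and sequenced on an Illumina HiSeq 2500. Relative association constants were derived from changes in read counts for each RNA species versus the control reaction and normalised to the cognate motif.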

In order of falling binding signal:
1. B19  0.0225 KA relative to UGCAUGU
2. B6  0.0223 KA relative to UGCAUGU
3. B31  0.0207 KA relative to UGCAUGU
4. B15  0.0187 KA relative to UGCAUGU
5. B25  0.0184 KA relative to UGCAUGU
6. B29  0.0171 KA relative to UGCAUGU
7. B30  0.017 KA relative to UGCAUGU
8. B22  0.0161 KA relative to UGCAUGU
9. B26  0.015 KA relative to UGCAUGU
10. B28  0.0149 KA relative to UGCAUGU
11. B27  0.0119 KA relative to UGCAUGU
12. B24  0.0112 KA relative to UGCAUGU
13. B7  0.0102 KA relative to UGCAUGU
14. B14  0.00943 KA relative to UGCAUGU
15. B1  0.00891 KA relative to UGCAUGU
16. B16  0.00885 KA relative to UGCAUGU
17. B18  0.00855 KA relative to UGCAUGU
18. B2  0.00825 KA relative to UGCAUGU
19. B12  0.00752 KA relative to UGCAUGU
20. B8  0.00577 KA relative to UGCAUGU
21. B4  0.00552 KA relative to UGCAUGU
22. B23  0.00482 KA relative to UGCAUGU
23. B20  0.00466 KA relative to UGCAUGU
24. B9  0.00421 KA relative to UGCAUGU
25. B3  0.00323 KA relative to UGCAUGU
26. B21  0.003 KA relative to UGCAUGU
27. B5  0.00277 KA relative to UGCAUGU
28. B10  0.0027 KA relative to UGCAUGU
29. B17  0.0013 KA relative to UGCAUGU
30. B13  0.000677 KA relative to UGCAUGU
31. B11  0.000211 KA relative to UGCAUGU
